{"source": "PubChem BioAssay AID540317", "about": "(National Center for Advancing Translational Sciences (NCATS), 2011)", "note": "Screen size: about 390,000 compounds; about 2,200 (0.56%) were called active. This list was built around the results that the source calls inconclusive (neither active nor inactive); the mix of calls is not that of the screen. Calls come from the whole dose curve; as a rule, active = well fitted inhibition curve with a large enough effect; inconclusive = small, poorly fitted or top-dose-only effect; inactive = no such curve, though single readings can be large or run the other way. Potencies of inconclusive entries are doubtful fits and often do not repeat. Potency is the fitted concentration of half-maximal effect; tags give direction and shape of the fitted curve.", "data": [{"biological_target": "Chromobox protein homolog 1 (Homo sapiens) (UniProt P83916)", "sequence (P83916 whole entry, looked up)": "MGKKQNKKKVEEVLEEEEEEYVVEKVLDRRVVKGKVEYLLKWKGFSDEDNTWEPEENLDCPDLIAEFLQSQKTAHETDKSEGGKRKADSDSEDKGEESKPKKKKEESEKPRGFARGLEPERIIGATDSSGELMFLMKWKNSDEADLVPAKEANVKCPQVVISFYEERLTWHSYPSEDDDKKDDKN", "test": "HTS for Inhibitors of HP1-beta Chromodomain Interactions with Methylated Histone Tails; note: nearly all actives have a fitted effect of over 70% in size", "conditions": "AlphaScreen HP1-beta / biotin-H3K9me3 peptide binding; series mostly up to 114 µM", "outline": "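Compound inhibition of the preformed complex between 50 nM HP1-beta and 50 nM biotinylated H3K9me3 peptide was read by AlphaScreen. Buffer was PBS pH 7.4 with 0.01% Tween-20. Incubations ran 30 min at room temperature, with 10 ug/mL donor/acceptor beads.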", "values": [{"smiles": "CCOC(=O)C1=C(C)n2c(s/c(=C3\\C(=O)Nc4ccccc43)c2=O)=NC1c1ccc(OC)cc1", "note": "(stereo not drawn)", "Potency": "inconclusive: 10 µM [inhibitor, full curve, poor fit]"}, {"smiles": "COc1cc(C2C(C#N)=C(N)OC3=C2C(=O)CCC3)c([N+](=O)[O-])cc1OC", "note": "(stereo not drawn)", "Potency": "inconclusive: 7.94 µM [inhibitor, full curve]"}, {"smiles": "CCCOc1ccc(/C=N/NC(=O)c2nnn(-c3nonc3N)c2-c2cccs2)cc1OC", "Potency": "inactive"}, {"smiles": "CCc1cc2c3c(c1)C(C)CC(C)(C)N3C(=O)/C2=C1\\SC(=O)NC1=O", "note": "(stereo not drawn)", "Potency": "inconclusive: 39.8 µM [inhibitor, partial curve]"}, {"smiles": "O=C(c1ccc([N+](=O)[O-])s1)N1CCN(c2cccc(Cl)c2)CC1", "Potency": "inconclusive: 50.1 µM [inhibitor, partial curve]"}, {"smiles": "CCOc1ccc(/C=C2\\SC(=S)N(CCC(=O)Nc3cccc(C(=O)O)c3)C2=O)cc1", "Potency": "inconclusive: 70.8 µM [inhibitor, single point]"}, {"smiles": "COc1ccc(Cc2nnc(SCc3ccc([N+](=O)[O-])cc3)o2)cc1", "Potency": "inconclusive: 89.1 µM [inhibitor, single point]"}, {"smiles": "CCN1C(=O)/C(=C\\c2ccncc2)SC1=Nc1ccc(C)c(C)c1", "Potency": "inconclusive: 28.2 µM [inhibitor, full curve]"}, {"smiles": "Cc1ccc(C)c(NC(=S)NCCc2c[nH]c3ccccc23)c1", "Potency": "inconclusive: 35.5 µM [inhibitor, partial curve]"}, {"smiles": "N/C(=N\\O)c1ccc(NC(=O)c2ccc(Br)o2)cc1", "Potency": "inconclusive: 17.8 µM [inhibitor, partial curve, poor fit]"}, {"smiles": "CCOc1ccc2[nH]c(=O)c(C(c3nnnn3Cc3ccco3)N3CCC(C)CC3)cc2c1", "note": "(stereo not drawn)", "Potency": "inactive"}, {"smiles": "COc1cccc(CNc2ccc3[nH]c(=O)[nH]c3c2)c1OCc1ccccc1F", "Potency": "active: 31.6 µM"}, {"smiles": "CC(=O)Nc1ccc(S(=O)(=O)Nc2nnc(CC(C)(C)C)s2)cc1", "Potency": "inconclusive: 12.6 µM [inhibitor, partial curve, poor fit]"}, {"smiles": "CCCN(C(=O)Cn1nc(C)c([N+](=O)[O-])c1C)c1c(N)n(Cc2ccccc2)c(=O)[nH]c1=O", "Potency": "inactive"}, {"smiles": "Cc1cccc(CN2CCC(N3CC(C)OC(C)C3)CC2)c1", "note": "(stereo not drawn)", "Potency": "inconclusive: 12.6 µM [inhibitor, full curve]"}, {"smiles": "COc1ccc(OCC(O)Cn2c(=N)n(CCN3CCCCC3)c3ccccc32)cc1", "note": "(stereo not drawn)", "Potency": "inconclusive: 7.08 µM [inhibitor, single point]"}, {"smiles": "O=[N+]([O-])c1c(Nc2ccccn2)cc(Cl)c2nonc12", "Potency": "inconclusive: 15.8 µM [inhibitor, full curve]"}, {"smiles": "Cc1ccc(-c2cc(-c3ccccc3)c(C#N)c(N)n2)o1", "Potency": "inconclusive: 44.7 µM [inhibitor, partial curve]"}, {"smiles": "COC(=O)c1ccc(C(=O)O)nc1", "Potency": "inconclusive: 28.2 µM [inhibitor, partial curve]"}, {"smiles": "CCOc1cc2nc3c4ccccc4n(C)c3nc2cc1OCC", "Potency": "inactive"}, {"smiles": "O=C(c1ccco1)N1CCn2cccc2C1c1ccccc1", "note": "(stereo not drawn)", "Potency": "active: 70.8 µM"}, {"smiles": "COc1ccccc1CC(=O)Nc1ccc([N+](=O)[O-])cc1OC", "Potency": "inconclusive: 70.8 µM [inhibitor, partial curve]"}, {"smiles": "COC1=C(Nc2ccccc2)C(=O)c2ccccc2C1=O", "Potency": "active: 35.5 µM"}, {"smiles": "CCOC(=O)C1(C)/C(=N/Nc2ccc(Cl)cc2)C(=O)C(=O)N1c1ccccc1", "note": "(stereo not drawn)", "Potency": "inconclusive: 17.8 µM [inhibitor, full curve, poor fit]"}, {"smiles": "CC1CCN(CCCn2c(=S)[nH]c3ccccc3c2=O)CC1", "Potency": "inactive"}, {"smiles": "CCOC(=O)c1ccc2ncc(C(=O)OCC)c(Nc3ccc(N4CCOCC4)cc3)c2c1", "Potency": "inconclusive: 20 µM [inhibitor, full curve, poor fit]"}, {"smiles": "Nc1ccc2c(c1)C(=Cc1cccnc1)c1ccccc1-2", "Potency": "inconclusive: 56.2 µM [inhibitor, single point]"}, {"smiles": "CNC(=O)c1c(NC(=O)/C=C/c2ccccc2)sc2c1CCC2", "Potency": "inactive"}, {"smiles": "N#C/C(=N\\Nc1ccc(S(=O)(=O)N2CCCCCC2)cc1)C(N)=S", "Potency": "inconclusive: 10 µM [inhibitor, full curve, poor fit]"}, {"smiles": "COc1ccccc1CCC(=O)OCC(=O)Nc1ccc(C)c(S(=O)(=O)N2CCCCC2)c1", "Potency": "inactive"}, {"smiles": "O=c1c2[nH]c3ccccc3c2nc2n1CCS2", "Potency": "inactive"}, {"smiles": "Cc1nnsc1C(=O)N1CCCC(N2CCN(c3ccc(F)cc3)CC2)C1", "note": "(stereo not drawn)", "Potency": "inactive"}, {"smiles": "O=C(NC(=S)N1CCc2ccccc21)c1ccco1", "Potency": "inconclusive: 44.7 µM [inhibitor, partial curve]"}, {"smiles": "COC(=O)C(Cc1ccc(O)cc1)NC(=O)C1CCN(S(=O)(=O)c2ccc(C)cc2)CC1", "note": "(stereo not drawn)", "Potency": "inactive"}, {"smiles": "OCCN(Cc1ccccc1)Cc1ccc(Cl)cc1", "Potency": "inconclusive: 56.2 µM [inhibitor, single point]"}, {"smiles": "CCOP(=O)(c1ccccc1)C(O)c1ccc([N+](=O)[O-])cc1", "note": "(stereo not drawn)", "Potency": "inactive"}, {"smiles": "Cc1ccc(NC(=O)c2ccc(NCCCN3CCOCC3)c([N+](=O)[O-])c2)cc1Cl", "Potency": "inconclusive: 35.5 µM [inhibitor, partial curve]"}, {"smiles": "CC(NC(=O)c1ccco1)c1nc(-c2ccc(Cl)cc2)no1", "note": "(stereo not drawn)", "Potency": "inactive"}, {"smiles": "O=C1/C(=C/c2ccccn2)SC(=S)N1Nc1ncc(C(F)(F)F)cc1Cl", "Potency": "inconclusive: 28.2 µM [inhibitor, full curve, poor fit]"}, {"smiles": "CCOCCCNC(=O)c1ccc2c(c1)ncn2-c1ccccc1OC", "Potency": "inactive"}, {"smiles": "Cc1ccc(-c2cc(-c3ccccc3Cl)c(C#N)c(N)n2)o1", "Potency": "inconclusive: 56.2 µM [inhibitor, single point]"}, {"smiles": "COC(=O)CC1Oc2ccccc2-n2cc(-c3ccc(F)cc3)nc21", "note": "(stereo not drawn)", "Potency": "inactive"}, {"smiles": "COc1ccc2c(c1)[N+](C)(C)C(C)(C)C=C2C", "Potency": "inconclusive: 44.7 µM [inhibitor, partial curve]"}, {"smiles": "COc1ccc(/C=C2\\Oc3cc(OCC(=O)N4CCC[C@H]4C(=O)O)ccc3C2=O)cc1OC", "Potency": "inactive"}, {"smiles": "Cc1ccc(Cl)cc1-n1nnc(-c2nc(-c3ccc4c(c3)OCO4)no2)c1C", "Potency": "inactive"}, {"smiles": "O=c1[nH]c(CN2CCN(c3ccc(O)cc3)CC2)nc2scc(-c3ccc(Cl)cc3)c12", "Potency": "inconclusive: 17.8 µM [inhibitor, partial curve, poor fit]"}, {"smiles": "c1cn2cc(-c3ccc4c(c3)OCO4)nc2s1", "Potency": "inconclusive: 25.1 µM [inhibitor, single point]"}, {"smiles": "Cc1cccc(Nc2nc(N)nc(CN3CCN(c4ccccc4)CC3)n2)c1", "Potency": "inconclusive: 20 µM [inhibitor, partial curve, poor fit]"}, {"smiles": "O=[N+]([O-])c1cccc(CN2CCN(Cc3ccco3)CC2)c1", "Potency": "inconclusive: 17.8 µM [inhibitor, full curve]"}, {"smiles": "COc1ccc(Nc2cc(C(=O)NC3CCCC3)c3ccccc3n2)c(OC)c1", "Potency": "inactive"}, {"smiles": "Cc1noc(C)c1NC(=O)Nc1ccc2c(c1)C(=O)N([C@H](C)CO)C[C@H](C)[C@@H](CN(C)C(=O)Nc1c(C)noc1C)O2", "Potency": "inactive"}, {"smiles": "CC(C)CC1c2[nH]c3ccccc3c2CCN1C(=O)CCC(=O)N(C)C", "note": "(stereo not drawn)", "Potency": "inconclusive: 25.1 µM [inhibitor, partial curve, poor fit]"}, {"smiles": "Cc1ccc(COc2ccc(CNCCCN3CCCCCC3=O)cc2)cc1", "Potency": "active: 31.6 µM"}, {"smiles": "COc1ccc(-c2[nH]c(-c3cc(OC)c4c(c3)OCO4)nc2-c2ccccc2)cc1", "Potency": "inconclusive: 44.7 µM [inhibitor, partial curve]"}, {"smiles": "COc1cc(OC)c(NC(=O)c2cc(CN3CCOCC3)on2)cc1Cl", "Potency": "inconclusive: 89.1 µM [inhibitor, single point]"}, {"smiles": "COCCN=c1scc(-c2ccc3c(c2)NC(=O)CO3)n1/N=C(\\C)c1ccc(O)cc1", "Potency": "inconclusive: 39.8 µM [inhibitor, partial curve]"}, {"smiles": "Cc1cccc(C2c3[nH]c4ccccc4c3CCN2Cc2cccn2-c2ncccn2)c1", "note": "(stereo not drawn)", "Potency": "inconclusive: 17.8 µM [inhibitor, full curve]"}, {"smiles": "COc1cc2ccccc2cc1C(=O)NC(=S)Nc1cccc(C(=O)O)c1", "Potency": "inactive"}, {"smiles": "Oc1ccc(N2CCN(C(c3ccncc3)c3nnnn3C3CCCC3)CC2)cc1", "note": "(stereo not drawn)", "Potency": "inconclusive: 79.4 µM [inhibitor, single point]"}, {"smiles": "CC1CCN(C2=C(NS(=O)(=O)c3ccc(Br)cc3)C(=O)c3ccccc3C2=O)CC1", "Potency": "active: 6.31 µM"}, {"smiles": "CCOC(=O)NNc1ccc2nonc2c1[N+](=O)[O-]", "Potency": "inconclusive: 44.7 µM [inhibitor, partial curve]"}, {"smiles": "CCOc1ccc(C=NNc2ccc(S(=O)(=O)Nc3ccccc3C(=O)O)cc2[N+](=O)[O-])cc1OC", "Potency": "inconclusive: 15.8 µM [inhibitor, full curve, poor fit]"}, {"smiles": "Cc1ccc(C(=O)c2cc(C)sc2N)cc1", "Potency": "inconclusive: 44.7 µM [inhibitor, partial curve]"}, {"smiles": "Nc1[nH]n(-c2ccccc2)c(=O)c1N=Nc1ccccc1", "Potency": "inconclusive: 25.1 µM [inhibitor, partial curve]"}, {"smiles": "COc1ccc(NC(=O)c2cc(-c3ccco3)nc3ccccc23)cc1S(=O)(=O)N1CCOCC1", "Potency": "inconclusive: 20 µM [inhibitor, full curve]"}, {"smiles": "COc1ccc(C(=O)N/N=C/c2ccc(OC)c(COc3ccccc3)c2)cc1", "Potency": "inactive"}, {"smiles": "Cc1ccc(-n2nnnc2C(=Cc2ccc(N(C)C)cc2)c2nnnn2-c2ccc(C)cc2)cc1", "Potency": "inconclusive: 89.1 µM [inhibitor, partial curve, poor fit]"}, {"smiles": "COc1cc(-c2n[nH]c(=S)n2/N=C/c2cccn2C)cc(OC)c1OC", "Potency": "inconclusive: 70.8 µM [inhibitor, partial curve]"}]}]}
